Reference: article PMC9911399, “Two distinct binding modes provide the RNA-binding protein RbFox with extraordinary sequence specificity”
Changes are numbered by the printed parent chain; changes in the protein carry UniProt numbers. The list shows a part of the results.

T1: RBFOX1 RRM (Homo sapiens, UniProt Q9NWB1 109-208)
T1 sequence: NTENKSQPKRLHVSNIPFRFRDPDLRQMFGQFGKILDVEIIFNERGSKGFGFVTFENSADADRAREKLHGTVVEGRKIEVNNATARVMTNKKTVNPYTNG

B1: CAUGUCG (DNA:RNA)
RNA: GGGAGACCGGAAUUCAGAUUGUCCCAUGUCGUUAAAUCCCGUCGUAGCCACCA
DNA 1: CAATCTGAATTCCGGTCTCCC
DNA 2: TGGTGGCTACGACGGGATT
B2: UAAAUUC (DNA:RNA)
RNA: B1 RNA with C25U, U27A, G28A, C30U, G31C
DNA 1: CAATCTGAATTCCGGTCTCCC
DNA 2: TGGTGGCTACGACGGGATT
B3: GCGCCUU (DNA:RNA)
RNA: GGGAGACCGGAAUUCAGAUUGUCCGCGCCUUUUAAAUCCCGUCGUAGCCACCA
DNA 1: CAATCTGAATTCCGGTCTCCC
DNA 2: TGGTGGCTACGACGGGATT
B4: UGUCGGA (DNA:RNA)
RNA: B1 RNA with C25U, A26G, G28C, U29G, C30G, G31A
DNA 1: CAATCTGAATTCCGGTCTCCC
DNA 2: TGGTGGCTACGACGGGATT
B5: CACGACA (DNA:RNA)
RNA: B1 RNA with U27C, U29A, G31A
DNA 1: CAATCTGAATTCCGGTCTCCC
DNA 2: TGGTGGCTACGACGGGATT
B6: GGGUACA (DNA:RNA)
RNA: B3 RNA with C26G, C28U, C29A, U30C, U31A
DNA 1: CAATCTGAATTCCGGTCTCCC
DNA 2: TGGTGGCTACGACGGGATT
B7: CCGGGGG (DNA:RNA)
RNA: B1 RNA with A26C, U27G, U29G, C30G
DNA 1: CAATCTGAATTCCGGTCTCCC
DNA 2: TGGTGGCTACGACGGGATT
B8: AGUCCUC (DNA:RNA)
RNA: B3 RNA with G25A, C26G, G27U, U31C
DNA 1: CAATCTGAATTCCGGTCTCCC
DNA 2: TGGTGGCTACGACGGGATT
B9: GGAGAAC (DNA:RNA)
RNA: B1 RNA with C25G, A26G, U27A, U29A, C30A, G31C
DNA 1: CAATCTGAATTCCGGTCTCCC
DNA 2: TGGTGGCTACGACGGGATT
B10: CACCUUG (DNA:RNA)
RNA: B1 RNA with U27C, G28C, C30U
DNA 1: CAATCTGAATTCCGGTCTCCC
DNA 2: TGGTGGCTACGACGGGATT
B11: UAUACUU (DNA:RNA)
RNA: B3 RNA with G25U, C26A, G27U, C28A
DNA 1: CAATCTGAATTCCGGTCTCCC
DNA 2: TGGTGGCTACGACGGGATT
B12: UAUGCGU (DNA:RNA)
RNA: B1 RNA with C25U, U29C, C30G, G31U
DNA 1: CAATCTGAATTCCGGTCTCCC
DNA 2: TGGTGGCTACGACGGGATT
B13: CUGGCGU (DNA:RNA)
RNA: B3 RNA with G25C, C26U, C28G, U30G
DNA 1: CAATCTGAATTCCGGTCTCCC
DNA 2: TGGTGGCTACGACGGGATT
B14: UGCAGGA (DNA:RNA)
RNA: GGGAGACCGGAAUUCAGAUUGUCCUGCAGGAUUAAAUCCCGUCGUAGCCACCA
DNA 1: CAATCTGAATTCCGGTCTCCC
DNA 2: TGGTGGCTACGACGGGATT
B15: ACGUUUU (DNA:RNA)
RNA: B3 RNA with G25A, C28U, C29U
DNA 1: CAATCTGAATTCCGGTCTCCC
DNA 2: TGGTGGCTACGACGGGATT
B16: GUUUCUC (DNA:RNA)
RNA: B3 RNA with C26U, G27U, C28U, U31C
DNA 1: CAATCTGAATTCCGGTCTCCC
DNA 2: TGGTGGCTACGACGGGATT
B17: UCCGAAA (DNA:RNA)
RNA: B14 RNA with G26C, A28G, G29A, G30A
DNA 1: CAATCTGAATTCCGGTCTCCC
DNA 2: TGGTGGCTACGACGGGATT
B18: GGUGAAA (DNA:RNA)
RNA: B1 RNA with C25G, A26G, U29A, C30A, G31A
DNA 1: CAATCTGAATTCCGGTCTCCC
DNA 2: TGGTGGCTACGACGGGATT
B19: ACUCUCU (DNA:RNA)
RNA: B1 RNA with C25A, A26C, G28C, G31U
DNA 1: CAATCTGAATTCCGGTCTCCC
DNA 2: TGGTGGCTACGACGGGATT
B20: UCUUAUA (DNA:RNA)
RNA: B3 RNA with G25U, G27U, C28U, C29A, U31A
DNA 1: CAATCTGAATTCCGGTCTCCC
DNA 2: TGGTGGCTACGACGGGATT
B21: AAGAAAA (DNA:RNA)
RNA: B14 RNA with U25A, G26A, C27G, G29A, G30A
DNA 1: CAATCTGAATTCCGGTCTCCC
DNA 2: TGGTGGCTACGACGGGATT
B22: CCACGGG (DNA:RNA)
RNA: B1 RNA with A26C, U27A, G28C, U29G, C30G
DNA 1: CAATCTGAATTCCGGTCTCCC
DNA 2: TGGTGGCTACGACGGGATT
B23: CGAUCGC (DNA:RNA)
RNA: B14 RNA with U25C, C27A, A28U, G29C, A31C
DNA 1: CAATCTGAATTCCGGTCTCCC
DNA 2: TGGTGGCTACGACGGGATT
B24: CGAUAAG (DNA:RNA)
RNA: B1 RNA with A26G, U27A, G28U, U29A, C30A
DNA 1: CAATCTGAATTCCGGTCTCCC
DNA 2: TGGTGGCTACGACGGGATT
B25: GGAUGCA (DNA:RNA)
RNA: B14 RNA with U25G, C27A, A28U, G30C
DNA 1: CAATCTGAATTCCGGTCTCCC
DNA 2: TGGTGGCTACGACGGGATT
B26: ACUUUAA (DNA:RNA)
RNA: B1 RNA with C25A, A26C, G28U, C30A, G31A
DNA 1: CAATCTGAATTCCGGTCTCCC
DNA 2: TGGTGGCTACGACGGGATT
B27: GGUAUUU (DNA:RNA)
RNA: B3 RNA with C26G, G27U, C28A, C29U
DNA 1: CAATCTGAATTCCGGTCTCCC
DNA 2: TGGTGGCTACGACGGGATT
B28: UUGCCGU (DNA:RNA)
RNA: B3 RNA with G25U, C26U, U30G
DNA 1: CAATCTGAATTCCGGTCTCCC
DNA 2: TGGTGGCTACGACGGGATT
B29: UUUGUAC (DNA:RNA)
RNA: B1 RNA with C25U, A26U, C30A, G31C
DNA 1: CAATCTGAATTCCGGTCTCCC
DNA 2: TGGTGGCTACGACGGGATT
B30: UGAAGAU (DNA:RNA)
RNA: B14 RNA with C27A, G30A, A31U
DNA 1: CAATCTGAATTCCGGTCTCCC
DNA 2: TGGTGGCTACGACGGGATT
B31: UCCAGUG (DNA:RNA)
RNA: B14 RNA with G26C, G30U, A31G
DNA 1: CAATCTGAATTCCGGTCTCCC
DNA 2: TGGTGGCTACGACGGGATT

Each binder was assayed against T1, RBFOX1 RRM (assay: EMSA; HiTS-Eq, 1 nM pool, 10 min; buffer printed only for the single-RNA assays: 10 mM Tris pH 7.5, 150 mM NaCl, 3.4 mM EDTA, 0.001% NP-40, 30 C). Details: tags: His6 N-terminal (pET28a); label: 5' 32P.
How it was run: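 Purified RbFox RRM, wild type or mutant, was incubated for 10 min in 50 µL with 1 nM of a 5′-radiolabelled RNA pool carrying 7 randomized nucleotides, whose flanks were annealed to DNA oligonucleotides, over a series of increasing protein concentrations. Unbound RNA was resolved on 8% native PAGE, cut out, reverse-transcribed, barcoded by PCR and sequenced on an Illumina HiSeq 2500. Relative association constants were derived from changes in read counts for each RNA species versus the control reaction and normalised to the cognate motif.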
In the case of B1, the binding signal is reported as 0.00864 KA relative to UGCAUGU. For B2, the binding signal was 0.0047 KA relative to UGCAUGU. B3 was tested, and the binding signal was 0.0123 KA relative to UGCAUGU. In the case of B4, the binding signal is reported as 0.00662 KA relative to UGCAUGU. With B5 the binding signal was 0.00042 KA relative to UGCAUGU. For B6, the binding signal was 0.0112 KA relative to UGCAUGU. In the case of B7, the binding signal is reported as 0.00756 KA relative to UGCAUGU. In the case of B8, the binding signal is reported as 0.0032 KA relative to UGCAUGU. With B9 the binding signal was 0.0229 KA relative to UGCAUGU. B10 was tested, and the binding signal was 0.00705 KA relative to UGCAUGU. In the case of B11, the binding signal is reported as 0.00169 KA relative to UGCAUGU. With B12 the binding signal was 0.0177 KA relative to UGCAUGU. For B13, the binding signal was 0.0208 KA relative to UGCAUGU. B14 was tested, and the binding signal was 0.0112 KA relative to UGCAUGU. B15 was tested, and the binding signal was 0.00473 KA relative to UGCAUGU. B16 was tested, and the binding signal was 0.0255 KA relative to UGCAUGU. For B17, the binding signal was 0.00597 KA relative to UGCAUGU. For B18, the binding signal was 0.00209 KA relative to UGCAUGU. In the case of B19, the binding signal is reported as 0.0042 KA relative to UGCAUGU. In the case of B20, the binding signal is reported as 0.00158 KA relative to UGCAUGU. With B21 the binding signal was 0.00198 KA relative to UGCAUGU. For B22, the binding signal was 0.00324 KA relative to UGCAUGU. With B23 the binding signal was 0.0152 KA relative to UGCAUGU. In the case of B24, the binding signal is reported as 0.0101 KA relative to UGCAUGU. For B25, the binding signal was 0.0274 KA relative to UGCAUGU. In the case of B26, the binding signal is reported as 0.00309 KA relative to UGCAUGU. With B27 the binding signal was 0.00308 KA relative to UGCAUGU. With B28 the binding signal was 0.0175 KA relative to UGCAUGU. With B29 the binding signal was 0.0156 KA relative to UGCAUGU. In the case of B30, the binding signal is reported as 0.0226 KA relative to UGCAUGU. With B31 the binding signal was 0.0101 KA relative to UGCAUGU.
